According to the supplement of paper PMC7826260:
The other results are listed elsewhere or left out. One pool of 16,384 single-stranded DNAs met each Rep nickase domain in vitro (3 µM enzyme, 1 h, 37 °C); shown is the middle of each 90-letter strand. Uncut reads are compared with the no-enzyme pool on a log2 scale; uncut sequences lie near 0, cut ones below; no hit call is given. Reads are scaled to the total; uncut strands gain when others are lost, and binding without cutting may add a little.

Key:
Assay in all cases: uncleaved DNA left, log2 of reads against the no-enzyme library (log2 ratio); higher = less cleavage (more negative = more Rep cleavage of the k-mer); sequences stand for … in CTCGTCCG…ACCGGAGA
[1] = system: T1, Rep nickase domain of Muscovy duck circovirus
T1 sequence (residues 1-111 of Rep, tag left off): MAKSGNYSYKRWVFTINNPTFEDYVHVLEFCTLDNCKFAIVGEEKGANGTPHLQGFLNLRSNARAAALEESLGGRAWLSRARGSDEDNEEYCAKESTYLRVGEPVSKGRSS
Description: (§1)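 A pool of 90-nt single-stranded DNAs with seven random bases just before the constant AC of the nick site (name = the seven bases) was cut by 3 µM recombinant His6-SUMO-tagged Rep nickase domain (300 nM DNA, 50 mM HEPES pH 8.0, 50 mM NaCl, 1 mM MnCl2, 1 h, 37 °C, three replicates). Uncut DNA was amplified and sequenced.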

[2] = system: T2, Rep nickase domain of banana bunchy top virus
T2 sequence (residues 1-94 of Rep, tag left off): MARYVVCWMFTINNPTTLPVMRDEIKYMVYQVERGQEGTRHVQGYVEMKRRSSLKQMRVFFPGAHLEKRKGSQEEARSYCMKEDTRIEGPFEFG
Description: as §1

[3] = system: T3, Rep nickase domain of cabbage leaf curl virus
T3 sequence (residues 1-116 of Rep, tag left off): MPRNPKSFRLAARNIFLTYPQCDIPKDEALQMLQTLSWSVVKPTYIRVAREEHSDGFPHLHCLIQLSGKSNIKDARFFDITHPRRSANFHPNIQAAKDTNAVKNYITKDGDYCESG
Description: as §1

[4] = system: T4, Rep nickase domain of chickpea chlorotic dwarf virus
T4 sequence (residues 1-124 of Rep, tag left off): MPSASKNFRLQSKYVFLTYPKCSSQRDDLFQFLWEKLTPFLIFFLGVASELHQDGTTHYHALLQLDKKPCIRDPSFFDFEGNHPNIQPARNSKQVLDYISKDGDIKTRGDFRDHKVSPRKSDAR
Description: as §1

[5] = system: T5, Rep nickase domain of faba bean necrotic yellows virus
T5 sequence (residues 1-98 of Rep, tag left off): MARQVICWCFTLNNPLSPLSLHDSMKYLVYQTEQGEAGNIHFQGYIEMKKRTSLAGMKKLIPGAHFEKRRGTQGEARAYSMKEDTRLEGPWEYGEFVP
Description: as §1

[6] = system: T6, Rep nickase domain of maize striate mosaic virus
T6 sequence (residues 1-117 of Rep, tag left off): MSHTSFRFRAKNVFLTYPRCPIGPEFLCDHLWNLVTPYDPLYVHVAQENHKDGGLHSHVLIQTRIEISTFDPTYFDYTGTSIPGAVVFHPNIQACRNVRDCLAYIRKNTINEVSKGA
Description: as §1

[7] = system: T7, Rep nickase domain of porcine circovirus 2
T7 sequence (residues 2-116 of Rep, tag left off): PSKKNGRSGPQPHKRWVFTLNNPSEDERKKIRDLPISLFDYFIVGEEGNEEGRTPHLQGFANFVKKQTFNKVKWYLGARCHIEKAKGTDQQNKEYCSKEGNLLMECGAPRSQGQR
Description: as §1

[8] = system: T8, Rep nickase domain of tomato yellow leaf curl virus
T8 sequence (residues 1-136 of Rep, tag left off): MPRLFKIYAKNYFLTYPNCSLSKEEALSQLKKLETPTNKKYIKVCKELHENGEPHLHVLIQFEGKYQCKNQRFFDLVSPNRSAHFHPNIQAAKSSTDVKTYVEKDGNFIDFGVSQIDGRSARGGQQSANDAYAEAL
Description: as §1

[9] = system: T9, Rep nickase domain of wheat dwarf virus
T9 sequence (residues 1-137 of Rep, tag left off): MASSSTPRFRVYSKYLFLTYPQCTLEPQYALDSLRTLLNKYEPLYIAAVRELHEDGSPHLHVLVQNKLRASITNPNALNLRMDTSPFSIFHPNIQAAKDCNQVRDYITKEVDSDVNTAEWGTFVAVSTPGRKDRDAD
Description: as §1

Row | Sequence | uncleaved DNA left (log2) [1] | uncleaved DNA left (log2) [2] | uncleaved DNA left (log2) [3] | uncleaved DNA left (log2) [4] | uncleaved DNA left (log2) [5] | uncleaved DNA left (log2) [6] | uncleaved DNA left (log2) [7] | uncleaved DNA left (log2) [8] | uncleaved DNA left (log2) [9]
1 | TCAGGCG | -0.0514 | -0.0368 | -0.637 | 0.343 | -0.0237 | -0.635 | 0.0872 | 0.0336 | -0.0617
2 | TGCCAGG | 0.0108 | -0.0386 | 0.371 | 0.951 | 0.0947 | 1.04 | 0.0813 | -0.0942 | -0.0268
3 | GCACAAC | 0.0336 | 0.105 | 0.105 | -0.396 | 0.0482 | -0.136 | 0.198 | 0.0301 | 0.0866
4 | TGTTCGG | 0.15 | -0.0367 | 0.436 | 1.32 | -0.0635 | 1.89 | 0.103 | -0.0781 | 0.0483
5 | AATAACA | -0.00541 | -0.0487 | -0.721 | -2.67 | -0.0872 | -1.31 | -0.154 | -0.0759 | -0.124
6 | AAAAAAC | 0.0729 | 0.0872 | 0.0324 | -0.47 | -0.0137 | -0.627 | 0.171 | -0.00208 | 0.121
7 | TACGGGA | 0.00936 | -0.0728 | 0.312 | 0.351 | -0.033 | 0.571 | 0.0579 | 0.00199 | -0.0504
8 | AAGTCAC | 0.0591 | 0.065 | -0.121 | -0.662 | 0.00365 | -0.425 | -2.95 | 0.0292 | 0.0459
9 | TATGGAC | 0.0592 | 0.136 | 0.478 | 1.27 | -0.0164 | 1.27 | 0.169 | 0.0808 | 0.176
10 | CATCAGG | 0.149 | 0.136 | 0.248 | 0.819 | 0.163 | 0.00646 | 0.242 | -0.00186 | 0.108
11 | ACCAGAC | 0.0136 | -0.073 | -0.0389 | 0.255 | 0.00883 | -0.417 | 0.209 | 0.031 | -0.031
12 | TCACCAC | -0.041 | -0.0287 | 0.00946 | -0.74 | -0.000707 | -0.451 | -0.213 | -0.0188 | 0.0257
13 | CCGTGGA | -0.0374 | 0.00278 | 0.257 | 0.31 | -0.129 | 0.113 | 0.0996 | -0.155 | -0.0537
14 | GTTTTAC | -0.159 | 0.0311 | 0.325 | 0.745 | 0.0049 | 1.76 | -0.107 | 0.0469 | 0.131
15 | CGCGCTA | -0.166 | -0.0402 | -0.277 | -0.34 | -0.105 | -0.454 | -0.121 | -0.00342 | -0.164
16 | GTTACTT | -0.0455 | 0.124 | 0.268 | 0.598 | -0.0696 | 1.69 | -0.0225 | 0.175 | 0.164
17 | TTTTGAC | -0.0425 | -0.0898 | 0.059 | -0.0931 | -0.0531 | -0.605 | 0.0365 | 0.0385 | -1.5e-05
18 | GCCAAGT | -0.0783 | 0.1 | 0.255 | 0.415 | -0.0865 | -0.148 | 0.0981 | 0.103 | 0.0683
19 | TCGTCTT | -2.59 | -0.754 | -0.569 | -2.2 | -1.22 | -0.272 | -3.23 | -0.279 | -0.463
20 | CGTCATG | -0.0811 | -0.0738 | -0.22 | 0.0312 | 0.0387 | 0.022 | -0.0371 | -0.1 | 0.0337

Row | Sequence | uncleaved DNA left (log2) [1] | uncleaved DNA left (log2) [2] | uncleaved DNA left (log2) [3] | uncleaved DNA left (log2) [4] | uncleaved DNA left (log2) [5] | uncleaved DNA left (log2) [6] | uncleaved DNA left (log2) [7] | uncleaved DNA left (log2) [8] | uncleaved DNA left (log2) [9]
21 | TCGCTAT | 0.057 | -0.178 | -0.0947 | -0.776 | -0.14 | -0.554 | -0.127 | 0.0193 | -0.168
22 | GGAAACG | -0.0139 | -0.0457 | -0.429 | -0.158 | 0.133 | -0.489 | 0.253 | -0.00779 | -0.12
23 | TATCATC | -0.0262 | -0.044 | -0.0395 | -0.292 | -0.187 | -0.497 | -0.1 | 0.0145 | -0.0632
24 | CAATTAC | -0.0929 | -0.132 | -1.6 | -2.96 | -0.117 | -1.15 | -0.132 | -0.0793 | -0.292
25 | TAACAAG | 0.0326 | 0.0566 | -0.941 | -1.57 | 0.0327 | -1.25 | 0.155 | 0.0422 | 0.0891
26 | AAGGAAA | 0.0925 | 0.0863 | 0.257 | 1.14 | 0.0565 | 1.22 | 0.211 | -0.0715 | 0.134
27 | GAAACCG | -0.0253 | -0.0932 | -0.685 | -0.795 | 0.08 | -0.857 | 0.0819 | -0.00413 | -0.0412
28 | AACCAAA | 0.0203 | -0.068 | -0.108 | -0.741 | -0.0295 | -0.755 | -0.316 | 0.00933 | 0.111
29 | CGGATAG | -0.0265 | 0.0341 | -0.223 | 0.302 | -0.00793 | -0.537 | 0.0327 | 0.0591 | 0.00661
30 | AAGGTAT | -0.0878 | -0.0277 | 0.152 | 1.49 | 0.0211 | 1.89 | 0.104 | -0.26 | 0.0181
31 | AATCATC | 0.0379 | 0.0673 | 0.0143 | -0.364 | -0.0254 | -0.746 | 0.0857 | 0.00438 | 0.0827
32 | TAAGTGA | 0.0504 | -0.0535 | -0.265 | -0.831 | 0.0178 | -0.622 | 0.0744 | -0.0505 | 0.00538
33 | TCTAAGC | 0.0628 | 0.0719 | -0.0161 | -0.238 | -0.00919 | -0.858 | 0.155 | -0.0398 | -0.00177
34 | TAGGAGC | 0.0163 | 0.0418 | 0.153 | 0.43 | 0.0165 | 0.145 | 0.0654 | 0.0228 | 0.021
35 | TGTCCTA | 0.0202 | 0.0871 | 0.264 | 0.0319 | -0.0152 | 0.598 | -0.187 | -0.00469 | 0.083
36 | CGTTTTA | -0.225 | -0.1 | 0.0355 | -0.291 | -0.00437 | 0.652 | -0.243 | -0.0832 | -0.12
37 | ACATTGA | -0.0292 | -0.0721 | -0.698 | -0.577 | -0.0395 | -1.21 | 0.0833 | -0.00963 | -0.141
38 | CCGGCTC | -0.0212 | -0.144 | -0.00289 | -0.0677 | -0.19 | 0.305 | -0.0843 | -0.19 | -0.476
39 | TGGTGCC | -0.095 | 0.0261 | 0.0489 | 0.0721 | 0.00643 | -0.208 | 0.00353 | -0.0342 | -0.0374
